According to the supplement of paper PMC8728848:
Some of the results follow.

How the values were obtained:
Assay in all cases: glycan array binding signal (z-score within array); higher = stronger binding
Conditions in all cases: glycan notation: IUPAC condensed, linker removed; mutation: E227A
[1] = target: Fuc(a1-2)[GalNAc(b1-3)]Gal
How it was run: (§1)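 Glycan array data were curated from 3228 arrays in the Consortium for Functional Glycomics database and kept only where the protein sequence was available. Glycan names were converted to IUPAC-condensed notation, and columns mapping to the same glycan were averaged. The binding signal is a within-array Z-score, averaged across arrays of the same protein sequence at different concentrations or buffers and across linkers. Negative Z-scores can be read as non-binding.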

[2] = target: Fuc(a1-3)GlcNAc
How it was run: as §1

[3] = target: Fuc(a1-3)[Gal(b1-4)]Glc6S
How it was run: as §1

[4] = target: Fuc(a1-3)[Gal(b1-4)]GlcNAc
How it was run: as §1

[5] = target: Fuc(a1-3)[Gal(b1-4)]GlcNAc(b1-2)Man
How it was run: as §1

[6] = target: Fuc(a1-3)[Gal(b1-4)]GlcNAc(b1-2)Man(a1-3)[Fuc(a1-3)[Gal(b1-4)]GlcNAc(b1-2)Man(a1-6)]Man(b1-4)GlcNAc(b1-4)GlcNAc
How it was run: as §1

[7] = target: Fuc(a1-3)[Gal(b1-4)]GlcNAc(b1-2)Man(a1-3)[Fuc(a1-3)[Gal(b1-4)]GlcNAc(b1-2)Man(a1-6)]Man(b1-4)GlcNAc(b1-4)[Fuc(a1-6)]GlcNAc
How it was run: as §1

[8] = target: Fuc(a1-3)[Gal(b1-4)]GlcNAc(b1-3)Gal(b1-3)[Fuc(a1-4)]GlcNAc
How it was run: as §1

[9] = target: Fuc(a1-3)[Gal(b1-4)]GlcNAc(b1-3)Gal(b1-4)[Fuc(a1-3)]GlcNAc
How it was run: as §1

[10] = target: Fuc(a1-3)[Gal(b1-4)]GlcNAc(b1-3)Gal(b1-4)[Fuc(a1-3)]GlcNAc(b1-3)Gal(b1-4)[Fuc(a1-3)]GlcNAc
How it was run: as §1

[11] = target: Fuc(a1-3)[Gal(b1-4)]GlcNAc(b1-3)GalNAc
How it was run: as §1

[12] = target: Fuc(a1-3)[Gal(b1-4)]GlcNAc(b1-6)GalNAc
How it was run: as §1

[13] = target: Fuc(a1-3)[Gal(b1-4)]GlcNAc(b1-6)[Gal(b1-3)GlcNAc(b1-3)]Gal(b1-4)Glc
How it was run: as §1

[14] = target: Fuc(a1-3)[Gal(b1-4)]GlcNAc6S
How it was run: as §1

[15] = target: Fuc(a1-3)[Gal3S(b1-4)]Glc
How it was run: as §1

[16] = target: Fuc(a1-3)[Gal3S(b1-4)]GlcNAc
How it was run: as §1

[17] = target: Fuc(a1-3)[Gal3S(b1-4)]GlcNAc6S
How it was run: as §1

[18] = target: Fuc(a1-3)[GalNAc(b1-4)]GlcNAc
How it was run: as §1

[19] = target: Fuc(a1-3)[GalNAc(b1-4)]GlcNAc6S
How it was run: as §1

[20] = target: Fuc(a1-4)GlcNAc
How it was run: as §1

[21] = target: Fuc(b1-3)GlcNAc
How it was run: as §1

[22] = target: Gal(a1-2)Gal
How it was run: as §1

[23] = target: Gal(a1-3)Gal
How it was run: as §1

[24] = target: Gal(a1-3)Gal(b1-3)GlcNAc
How it was run: as §1

[25] = target: Gal(a1-3)Gal(b1-3)GlcNAc(b1-2)Man
How it was run: as §1

[26] = target: Gal(a1-3)Gal(b1-3)GlcNAc(b1-2)Man(a1-3)[Gal(a1-3)Gal(b1-3)GlcNAc(b1-2)Man(a1-6)]Man(b1-4)GlcNAc(b1-4)GlcNAc
How it was run: as §1

[27] = target: Gal(a1-3)Gal(b1-3)GlcNAc(b1-3)GalNAc
How it was run: as §1

[28] = target: Gal(a1-3)Gal(b1-3)GlcNAc(b1-6)GalNAc
How it was run: as §1

[29] = target: Gal(a1-3)Gal(b1-3)[Fuc(a1-4)]GlcNAc(b1-2)Man(a1-3)[Gal(a1-3)Gal(b1-3)[Fuc(a1-4)]GlcNAc(b1-2)Man(a1-6)]Man(b1-4)GlcNAc(b1-4)GlcNAc
How it was run: as §1

[30] = target: Gal(a1-3)Gal(b1-4)Glc
How it was run: as §1

B1: Epa1-NP-mutant-E227A (Candida glabrata), Q6VBJ0 (protein)
chain: MILNPALFLNKCVCIYTTLILLLLTNGGYATSSNDISLASKDPTTFPLGCSPDITTPKKGLSMELYSYDFRKKGSYPCWDAAYLDPNYPRTGYKSHRLLAKVDGVTGNINFYYHATKGCTPQLGHLPASYNYPKPLTMTNFTMLLYGYFRPKVTGFHTFTISADDLLFVNFGAGNAFDCCRRDSSADHFGNYQAYAIWGSKTAKDELTVHLDAGVYYPIRLFYNNRAYDGALSFTFKTESNENTVSDFSEYFFSLDDTEEGCPGLISYDSSCASVKTSKIIGIDYHTETPNENLVPITKTIYHLGIPCTGTTTTPLCGSGFYDPLANKCVTINTSSTSSVTKTTSHTTSKEVSFHSSISSQKTLIPKSIPSPYGPIKSQSIPTEMETSSEISSSEYAFSDVISTPSHSPYTKKHSSLNSSSYTSTVIHSLTSYSISQGIFSTSLSEQNITSKSSTDKFSTATSMSNNITQSSIIISQFSTNNENYTTTSMHTSSDKISTETLNNSISTTTSILFSNSSTILKNNTTIISSDKDTHYHPVNPTIVCSTNKTEIICASITQPSISNSNNHWSSSVLKFNSTTVRSTLPSSAGSNETSINVPFSSSTESNTSTSSTSTSNSKMVRSTLPSSAGSNETSISVPFSSSTESNTSTSSTSTSNSKMVRSTLPSSAGSNETSINVPFSSSTESNTSTSSTSTSNSKTVRSTPFSSAGIIMTSLSQRNNKSASSYASSNSKCYNTADSCRKVHSTPSYLLTSSYTSEGVDYDCSLVSTKLKINDTNCVNNKHTTKSCLKTSVTTTIPTLEIKTARKSSSNTIGLHSYPTSSPNKSISSAPIIGYISSFKTIKTASPSYQTSDLTTITTITSLNNPGSTAVENTHESNDKSRKTSSNDISSKHSVIKETKDAVESSNKSHQTNTLKCSSIIIASSSHNSYESLGGTTLTLTLSKVYSPQNNDTLPFLEISEVNPSRTVLPESSKMMQYLTSTEERNKTARNTIATNIVSISTFHFEGEGNAIRMGYTQLLLMLIGIIVMNIGT
glycan array binding signal (z-score) [1]: -0.161 | glycan array binding signal (z-score) [2]: -0.218 | glycan array binding signal (z-score) [3]: -0.176 | glycan array binding signal (z-score) [4]: -0.173 | glycan array binding signal (z-score) [5]: -0.202 | glycan array binding signal (z-score) [6]: -0.212 | glycan array binding signal (z-score) [7]: -0.194 | glycan array binding signal (z-score) [8]: -0.199 | glycan array binding signal (z-score) [9]: -0.175 | glycan array binding signal (z-score) [10]: -0.189 | glycan array binding signal (z-score) [11]: -0.162 | glycan array binding signal (z-score) [12]: -0.198 | glycan array binding signal (z-score) [13]: 0.173 | glycan array binding signal (z-score) [14]: -0.143 | glycan array binding signal (z-score) [15]: -0.172 | glycan array binding signal (z-score) [16]: -0.186 | glycan array binding signal (z-score) [17]: -0.151 | glycan array binding signal (z-score) [18]: -0.184 | glycan array binding signal (z-score) [19]: -0.199 | glycan array binding signal (z-score) [20]: -0.192 | glycan array binding signal (z-score) [21]: -0.186 | glycan array binding signal (z-score) [22]: -0.205 | glycan array binding signal (z-score) [23]: -0.177 | glycan array binding signal (z-score) [24]: -0.179 | glycan array binding signal (z-score) [25]: -0.219 | glycan array binding signal (z-score) [26]: -0.142 | glycan array binding signal (z-score) [27]: -0.184 | glycan array binding signal (z-score) [28]: -0.185 | glycan array binding signal (z-score) [29]: -0.138 | glycan array binding signal (z-score) [30]: -0.196
